This note sets out measurements from publication PMC10739154, “Reinvestigation of Disulfide-bonded Oligomeric Forms of the Unfolded Protein Response Transducer ATF6” (Cell Structure and Function, 2019).

The target in test [1] is HA-ATF6α(C467&618A) (human) (UniProt P18850). Description: co-IP; HA-ATF6α and EGFP-ATF6α co-expressed in HCT116 DKO cells; 1% NP-40 lysates, anti-HA or anti-GFP antibody with protein G sepharose at 4°C, non-denaturing (disulfide bond-retaining) conditions; eluted with dithiothreitol, reducing SDS-PAGE, blot with anti-ATF6α.
Test [2] has as its target HA-ATF6α(WT) (human) (UniProt P18850). Described as above.
Test [3] concerns the target HA-ATF6α(C467&618A) (human) (UniProt P18850). Description: condition: only in non-reducing SDS-PAGE (boiled in SDS; shows disulfide-bonded forms alone); non-reducing SDS-PAGE with immunoblotting; co-expression of HA-ATF6α and EGFP-ATF6α forms in HCT116 DKO cells; lysates on non-reducing SDS-PAGE; blot with anti-ATF6α; band of disulfide-bonded heterodimer of intermediate size.

The target of test [4] is HA-ATF6α(WT) (human) (UniProt P18850). The test is described as above.
For test [5], the target named is EGFP-ATF6α(C467&618A) (human) (UniProt P18850). Description: co-IP; HA-ATF6α and EGFP-ATF6α co-expressed in HCT116 DKO cells; 1% NP-40 lysates, anti-HA or anti-GFP antibody with protein G sepharose at 4°C, non-denaturing (disulfide bond-retaining) conditions; eluted with dithiothreitol, reducing SDS-PAGE, blot with anti-ATF6α.
In test [6] the target is EGFP-ATF6α(WT) (human) (UniProt P18850). The test is described as above.
Test [7] has as its target HA-ATF6α(C618A) (human) (UniProt P18850). Description: non-reducing SDS-PAGE with immunoblotting; one form of ATF6α in the cells; lysis in 1% NP-40 buffer (50 mM Tris/HCl pH 7.5, 150 mM NaCl, 10 mM N-ethylmaleimide), boiled in SDS sample buffer without dithiothreitol; blot with anti-ATF6α; shows disulfide-bonded forms. (In general: A western blot detects proteins with antibodies after separation by electrophoresis.)

Test [8] has as its target HA-ATF6α(C81/321/380A) (human) (UniProt P18850). The test is described as above.
Test [9] deals with HA-ATF6α(C81/321/380/618A), in HCT116 DKO cells (human) (UniProt P18850). The test is described as above.
Test [10] has as its target HA-ATF6α(C467A) (human) (UniProt P18850). Description: non-reducing SDS-PAGE with immunoblotting; co-expression of HA-ATF6α and EGFP-ATF6α forms in HCT116 DKO cells; lysates on non-reducing SDS-PAGE; blot with anti-ATF6α; band of disulfide-bonded heterodimer of intermediate size.
Test [11] deals with HA-ATF6α(C618A) (human) (UniProt P18850). The description is as above.
Test [12] addresses HA-ATF6α(WT) (human) (UniProt P18850). The test is described as above.

No constants are given. Whether binding was seen depends on the method and setting. For some of these results: In cells and extracts the contact can be indirect. Some results given as binding are weak or reduced against the parent protein; the word gives no strength.

Turning to “EGFP-ATF6α(C467&618A) (from UniProt P18850 1-670)”, the binding entry is “binds” in test [1], “binds” in test [2], “no binding” in [3] and “no binding” in test [4].
“HA-ATF6α(C467&618A) (from UniProt P18850 1-670)”: the binding result in test [5] and in [6] was “binds” in each case.
“HA-ATF6α(C618A) (from UniProt P18850 1-670)”: the binding result in test [7] is recorded as “binds”.
Consider “HA-ATF6α(C81/321/380A) (from UniProt P18850 1-670)”, for which, in test [8], the binding entry is “binds”.
Consider “HA-ATF6α(C81/321/380/618A), in HCT116 DKO cells (from UniProt P18850 1-670)”, for which the binding result in test [9] is “binds”.

B1: EGFP-ATF6α(WT) (natural protein, human, UniProt P18850 1-670, looked up)
chain: MGEPAGVAGTMESPFSPGLFHRLDEDWDSALFAELGYFTDTDELQLEAANETYENNFDNLDFDLDLMPWESDIWDINNQICTVKDIKAEPQPLSPASSSYSVSSPRSVDSYSSTQHVPEELDLSSSSQMSPLSLYGENSNSLSSAEPLKEDKPVTGPRNKTENGLTPKKKIQVNSKPSIQPKPLLLPAAPKTQTNSSVPAKTIIIQTVPTLMPLAKQQPIISLQPAPTKGQTVLLSQPTVVQLQAPGVLPSAQPVLAVAGGVTQLPNHVVNVVPAPSANSPVNGKLSVTKPVLQSTMRNVGSDIAVLRRQQRMIKNRESACQSRKKKKEYMLGLEARLKAALSENEQLKKENGTLKRQLDEVVSENQRLKVPSPKRRVVCVMIVLAFIILNYGPMSMLEQDSRRMNPSVSPANQRRHLLGFSAKEAQDTSDGIIQKNSYRYDHSVSNDKALMVLTEEPLLYIPPPPCQPLINTTESLRLNHELRGWVHRHEVERTKSRRMTNNQQKTRILQGALEQGSNSQLMAVQYTETTSSISRNSGSELQVYYASPRSYQDFFEAIRRRGDTFYVVSFRRDHLLLPATTHNKTTRPKMSIVLPAININENVINGQDYEVMMQIDCQVMDTRILHIKSSSVPPYLRDQQRNQTNTFFGSPPAATEATHVVSTIPESLQ
notes: ATF6α, human, tagged with EGFP at the N-terminus; Constructed in previous studies (Nadanaka et al., 2007; 2004); source: HCT116 ATF6α/β-DKO cells, transfected, in lysate; not shown: EGFP, N-terminal, kept
For the molecule B1, the binding result is “binds” in test [10]; “binds” in [11]; “binds” in test [12]; “binds” in test [1]; “binds” in test [2]; “no binding” in [3].

B2: HA-ATF6α(WT) (natural protein, human, UniProt P18850 1-670, looked up)
chain: MGEPAGVAGTMESPFSPGLFHRLDEDWDSALFAELGYFTDTDELQLEAANETYENNFDNLDFDLDLMPWESDIWDINNQICTVKDIKAEPQPLSPASSSYSVSSPRSVDSYSSTQHVPEELDLSSSSQMSPLSLYGENSNSLSSAEPLKEDKPVTGPRNKTENGLTPKKKIQVNSKPSIQPKPLLLPAAPKTQTNSSVPAKTIIIQTVPTLMPLAKQQPIISLQPAPTKGQTVLLSQPTVVQLQAPGVLPSAQPVLAVAGGVTQLPNHVVNVVPAPSANSPVNGKLSVTKPVLQSTMRNVGSDIAVLRRQQRMIKNRESACQSRKKKKEYMLGLEARLKAALSENEQLKKENGTLKRQLDEVVSENQRLKVPSPKRRVVCVMIVLAFIILNYGPMSMLEQDSRRMNPSVSPANQRRHLLGFSAKEAQDTSDGIIQKNSYRYDHSVSNDKALMVLTEEPLLYIPPPPCQPLINTTESLRLNHELRGWVHRHEVERTKSRRMTNNQQKTRILQGALEQGSNSQLMAVQYTETTSSISRNSGSELQVYYASPRSYQDFFEAIRRRGDTFYVVSFRRDHLLLPATTHNKTTRPKMSIVLPAININENVINGQDYEVMMQIDCQVMDTRILHIKSSSVPPYLRDQQRNQTNTFFGSPPAATEATHVVSTIPESLQ
notes: ATF6α, human, full length; Plasmid from R. Prywes (Wang et al., 2000); also called HA-tagged WT; HA-tagged ATF6α WT; source: HCT116 ATF6α/β-DKO cells, transfected, in lysate; not shown: HA, N-terminal, kept
As for B2, the binding result in test [5] and in [6] was “binds” each time.

B3: EGFP-ATF6α(C467A) (natural protein, human, UniProt P18850 1-670, looked up)
chain: MGEPAGVAGTMESPFSPGLFHRLDEDWDSALFAELGYFTDTDELQLEAANETYENNFDNLDFDLDLMPWESDIWDINNQICTVKDIKAEPQPLSPASSSYSVSSPRSVDSYSSTQHVPEELDLSSSSQMSPLSLYGENSNSLSSAEPLKEDKPVTGPRNKTENGLTPKKKIQVNSKPSIQPKPLLLPAAPKTQTNSSVPAKTIIIQTVPTLMPLAKQQPIISLQPAPTKGQTVLLSQPTVVQLQAPGVLPSAQPVLAVAGGVTQLPNHVVNVVPAPSANSPVNGKLSVTKPVLQSTMRNVGSDIAVLRRQQRMIKNRESACQSRKKKKEYMLGLEARLKAALSENEQLKKENGTLKRQLDEVVSENQRLKVPSPKRRVVCVMIVLAFIILNYGPMSMLEQDSRRMNPSVSPANQRRHLLGFSAKEAQDTSDGIIQKNSYRYDHSVSNDKALMVLTEEPLLYIPPPPAQPLINTTESLRLNHELRGWVHRHEVERTKSRRMTNNQQKTRILQGALEQGSNSQLMAVQYTETTSSISRNSGSELQVYYASPRSYQDFFEAIRRRGDTFYVVSFRRDHLLLPATTHNKTTRPKMSIVLPAININENVINGQDYEVMMQIDCQVMDTRILHIKSSSVPPYLRDQQRNQTNTFFGSPPAATEATHVVSTIPESLQ
notes: ATF6α, human, C467A, tagged with EGFP at the N-terminus; Constructed in previous studies (Nadanaka et al., 2007; 2004); source: HCT116 ATF6α/β-DKO cells, transfected, in lysate; not shown: EGFP, N-terminal, kept
B3: the binding result in [10] is “binds”.

B4: EGFP-ATF6α(C618A) (natural protein, human, UniProt P18850 1-670, looked up)
chain: MGEPAGVAGTMESPFSPGLFHRLDEDWDSALFAELGYFTDTDELQLEAANETYENNFDNLDFDLDLMPWESDIWDINNQICTVKDIKAEPQPLSPASSSYSVSSPRSVDSYSSTQHVPEELDLSSSSQMSPLSLYGENSNSLSSAEPLKEDKPVTGPRNKTENGLTPKKKIQVNSKPSIQPKPLLLPAAPKTQTNSSVPAKTIIIQTVPTLMPLAKQQPIISLQPAPTKGQTVLLSQPTVVQLQAPGVLPSAQPVLAVAGGVTQLPNHVVNVVPAPSANSPVNGKLSVTKPVLQSTMRNVGSDIAVLRRQQRMIKNRESACQSRKKKKEYMLGLEARLKAALSENEQLKKENGTLKRQLDEVVSENQRLKVPSPKRRVVCVMIVLAFIILNYGPMSMLEQDSRRMNPSVSPANQRRHLLGFSAKEAQDTSDGIIQKNSYRYDHSVSNDKALMVLTEEPLLYIPPPPCQPLINTTESLRLNHELRGWVHRHEVERTKSRRMTNNQQKTRILQGALEQGSNSQLMAVQYTETTSSISRNSGSELQVYYASPRSYQDFFEAIRRRGDTFYVVSFRRDHLLLPATTHNKTTRPKMSIVLPAININENVINGQDYEVMMQIDAQVMDTRILHIKSSSVPPYLRDQQRNQTNTFFGSPPAATEATHVVSTIPESLQ
notes: ATF6α, human, C618A, tagged with EGFP at the N-terminus; Constructed in previous studies (Nadanaka et al., 2007; 2004); source: HCT116 ATF6α/β-DKO cells, transfected, in lysate; not shown: EGFP, N-terminal, kept
As for B4, the binding result in test [11] was “binds”.
